Measured values published in PubChem BioAssay AID488969 (Vanderbilt High Throughput Screening Facility, 2010).
Whole data set: some 110,000 compounds, median “z-score” near -0.1, cut for the highest 2% near 2. The list shows a part of the results. Activity calls are given as the source filed them.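 The calls were made as follows: active = z-score in the third read window above 3 or below -3; inactive = the rest.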

target: Metabotropic glutamate receptor 8 (Rattus norvegicus) (UniProt P70579); experiment: rat mGluR8 modulators via GIRK flux, primary screen, cell-based, thallium flux, HTS (AID 488969); settings: HEK293 rat mGluR8, GIRK (G protein-gated inwardly rectifying potassium channel) thallium flux, FluoZin2; at 10 µM; stronger effect = higher value; submaximal glutamate (EC20) added with thallium
UniProt P70579, sequence (P70579 whole entry, looked up): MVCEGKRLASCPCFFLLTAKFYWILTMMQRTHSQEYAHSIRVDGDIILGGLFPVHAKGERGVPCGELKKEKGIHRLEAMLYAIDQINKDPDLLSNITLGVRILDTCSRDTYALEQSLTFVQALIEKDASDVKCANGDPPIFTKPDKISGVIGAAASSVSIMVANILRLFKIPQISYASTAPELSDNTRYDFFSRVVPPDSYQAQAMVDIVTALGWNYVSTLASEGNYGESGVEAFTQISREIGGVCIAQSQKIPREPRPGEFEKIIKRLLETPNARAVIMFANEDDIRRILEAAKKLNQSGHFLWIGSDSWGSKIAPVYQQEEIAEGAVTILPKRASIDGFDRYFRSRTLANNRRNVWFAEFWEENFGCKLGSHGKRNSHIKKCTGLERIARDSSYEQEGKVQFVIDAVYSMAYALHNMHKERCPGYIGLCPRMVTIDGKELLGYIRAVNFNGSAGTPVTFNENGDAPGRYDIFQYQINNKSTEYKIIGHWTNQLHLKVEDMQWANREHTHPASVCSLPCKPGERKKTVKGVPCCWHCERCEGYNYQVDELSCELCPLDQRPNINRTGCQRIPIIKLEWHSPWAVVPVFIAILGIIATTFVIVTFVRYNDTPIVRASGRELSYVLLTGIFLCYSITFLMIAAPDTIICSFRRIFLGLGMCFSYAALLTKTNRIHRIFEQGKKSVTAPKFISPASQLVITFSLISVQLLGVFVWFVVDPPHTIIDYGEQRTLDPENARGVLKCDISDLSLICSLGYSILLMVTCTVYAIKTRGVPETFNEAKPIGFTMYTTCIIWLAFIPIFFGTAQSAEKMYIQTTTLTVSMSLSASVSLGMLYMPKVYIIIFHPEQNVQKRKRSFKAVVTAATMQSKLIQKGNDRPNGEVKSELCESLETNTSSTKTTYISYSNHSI

Going from `CCOC(=O)c1c(-c2ccc(-c3ccccc3)cc2)csc1NC(=O)CCN1CCOCC1` to `O=C(Nc1ccc(N2CCN(C(=O)c3ccccc3)CC2)cc1)c1ccc(Br)o1`, the z-score falls from -0.139 to -0.352.

Going from `O=C(CCNC(=O)c1ccccc1)OCN1C(=O)c2ccccc2C1=O` to `O=C(CSCC(=O)c1ccccc1)Nc1ccccc1Cl`, the z-score falls from -0.16 to -0.358.

Compared with `O=C(CCn1c(=S)[nH]c2cc3c(cc2c1=O)OCO3)N1CCN(C2CCCCC2)CC1`, `CCN1CCN(CCn2c(=S)[nH]c3cc4c(cc3c2=O)OCO4)CC1` is higher in z-score: -0.372 for the first, 0.106 for the second.

Compared with `Cc1cccc(Nc2nnc(SCC(=O)Nc3cccc(S(=O)(=O)N4CCCCC4)c3)s2)c1`, `O=C(CSc1nc2cc(S(=O)(=O)N3CCOCC3)ccc2o1)NC1CCCc2ccccc21` (stereo not drawn) is lower in z-score: -0.33 for the first, -0.421 for the second.

Going from `Cc1cc2c(cc1C)NC(=O)CC(C(F)(F)C(F)(F)C(F)(F)F)=N2` to `Cc1cc(C)c(NC(=O)c2ccc(CNS(=O)(=O)c3cc(C(F)(F)F)ccc3Cl)cc2)c(C)c1`, the z-score rises from -0.139 to -0.0884.

Compared with `CN(C)S(=O)(=O)c1ccc2c(c1)C(CC(=O)O)OC2=O` (stereo not drawn), `CCN(CC)S(=O)(=O)c1cccc(C(=O)N[C@H](C(=O)NCc2ccc(Cl)cc2)C(C)C)c1` is lower in z-score: 0.184 for the first, -0.475 for the second.

Compared with `Cc1ccccc1NS(=O)(=O)c1cc(C(=O)NCc2ccco2)ccc1C`, `Cc1ccc(S(=O)(=O)NCC23C=CC(O2)C2C(=O)N(c4ccccc4)C(=O)C23)cc1` (stereo not drawn) is higher in z-score: -0.101 for the first, 0.438 for the second.

First: C=C(C)Cn1c(SCC(=O)N/N=C/c2ccccc2)nc2ccccc2c1=O
Second: O=C(CSc1nc2ccccc2[nH]1)N=Nc1c(O)[nH]c2ccccc12
The z-score of the first is lower: -2.14 for the first, -0.572 for the second.

First: CCOC(=O)C1CCCN(C(=O)Cc2ccc(C)cc2)C1 (stereo not drawn)
Second: O=C(CNC(=O)c1ccccc1F)OCC(=O)N1CCCCC1
The z-score of the first is lower: -0.33 for the first, -0.254 for the second.

Going from `O=C(Cn1c(C(=O)N2CCN(C3CCCC3)CC2)cc2sccc21)c1ccccc1` to `CC(=O)c1ccc(N2CCN(C(=O)C3CCC3)CC2)cc1`, the z-score rises from 0.0173 to 0.464.

Compared with `O=C(CCc1nc2ccccc2c(=O)[nH]1)OCc1ccc(-c2ccccc2)cc1`, `O=C(c1cn(-c2ccccc2)nc1-c1ccccc1)n1nnc2ccccc21` is lower in z-score: -0.0224 for the first, -0.0979 for the second.

Compared with `CCc1noc(C)c1C(=O)Nc1nc(-c2ccc(Cl)cc2Cl)c(C)s1`, `CCc1cc2c(SCC(=O)Nc3ncc(Cl)c(C)c3Cl)ncnc2s1` is lower in z-score: -0.529 for the first, -0.572 for the second.

Compared with `Cc1nc(=S)c2ccccc2[nH]1`, `Cc1cc(-c2ccccc2)c(C#N)c(N)n1` is lower in z-score: 1.49 for the first, 0.646 for the second.

Compared with `CCOc1ccccc1C(=O)N(Cc1cccs1)C1CCS(=O)(=O)C1` (stereo not drawn), `CCn1c(SCC(=O)NCc2ccc3c(c2)OCO3)nnc1-c1cccs1` is higher in z-score: -0.586 for the first, -0.0658 for the second.

Going from `O=C1C(=O)N(CCCN2CCOCC2)C(c2cccs2)/C1=C(/O)c1ccc2c(c1)OCO2` (stereo not drawn) to `O=C(Cc1ccccc1)NC(NCCCN1CCOCC1)(C(F)(F)F)C(F)(F)F`, the z-score falls from 0.367 to 0.0609.

Going from `Cc1cc(NC(=O)CSc2ccccc2)no1` to `Cc1onc(-c2ccccc2)c1C(=O)Nc1ccncc1`, the z-score rises from -0.0515 to 0.37.

Going from `CCCCOc1ccc(Cl)cc1CSc1n[nH]c(C)n1` to `COc1ccc2nc(SCc3ccccc3)nc(C)c2c1`, the z-score falls from -0.293 to -0.399.

Compared with `CC(C)CCNC(=O)C(c1cccnc1)N(CCc1ccccc1)C(=O)Cn1nnc2ccccc21` (stereo not drawn), `O=C(CSc1ccc2nnc(CCNS(=O)(=O)c3ccccc3)n2n1)Nc1nc2ccccc2s1` is lower in z-score: 0.555 for the first, -0.158 for the second.

Compared with `O=C(COC(=O)c1cccnc1)Nc1ccc(F)cc1`, `COC(C(=O)Nc1ccc(F)cc1)c1ccccc1` (stereo not drawn) is higher in z-score: 0.1 for the first, 0.662 for the second.

Compared with `CCOc1cccc(C(=O)Nc2cc(-c3nn4c(C)nnc4s3)ccc2C)c1`, `COc1ccc2oc(-c3ccc(C)c(NC(=O)c4ccc(N5CCOCC5)c([N+](=O)[O-])c4)c3)nc2c1` is lower in z-score: 0.356 for the first, -0.0248 for the second.

Going from `CCOC(=O)COc1ccc(S(=O)(=O)N2CCN(c3ccc(F)cc3)CC2)cc1` to `COc1ccc(CNS(=O)(=O)c2ccc(OC)cc2)cc1`, the z-score rises from -0.127 to 0.775.

First: Cc1ccc(-n2c(SCC(N)=O)nc3c(c2=O)C2(CCCC2)Cc2ccccc2-3)cc1
Second: Cc1ccc(NC(=O)COC(=O)C2(c3ccc(Cl)cc3)CCCC2)cc1
The z-score of the first is lower: -0.348 for the first, -0.108 for the second.

First: O=C(CN1C(=O)NC2(CCCCC2)C1=O)Nc1ccc(S(=O)(=O)N2CCOCC2)cc1
Second: CCCn1c(N)c(N2CCCCC2)c(=O)n(CC(=O)Nc2ccc(OC(F)(F)F)cc2)c1=O
The z-score of the first is higher: -0.0303 for the first, -0.235 for the second.

First: COc1ccccc1NC(=O)C1=C(C)Nc2nc(-c3cccs3)nn2C1c1cccnc1 (stereo not drawn)
Second: Cc1c(C(=O)Nc2ccc(Cl)cc2)c2ccccn2c1C(=O)c1ccc(F)cc1
The z-score of the first is lower: -0.482 for the first, 0.165 for the second.

Compared with `C=C(C)c1cccc(C(C)(C)NC(=O)NC(c2ccccc2)c2ccc(OC)cc2)c1` (stereo not drawn), `COc1ccc(/C=C/C(=O)NCC(=O)N/N=C/c2cc(Br)ccc2OCc2ccccc2)cc1` is lower in z-score: -0.23 for the first, -0.325 for the second.

First: CCCc1[nH]nc2c1C(c1ccc(OC)c(Cn3nnc4ccccc43)c1)C(C#N)=C(N)O2 (stereo not drawn)
Second: COc1ccc(C(=O)N2CCN(c3nc4ccccc4o3)CC2)cc1OC
The z-score of the first is lower: -0.88 for the first, -0.0995 for the second.

First: CCOc1ccc(C(=O)NC(=S)Nc2cccnc2)cc1
Second: COC(=O)c1ccc(OC(=O)c2ccco2)cc1
The z-score of the first is lower: -0.435 for the first, 0.696 for the second.

First: C#CCn1c(=NC(=O)CN2C(=O)CCC2=O)sc2cc(S(N)(=O)=O)ccc21
Second: O=C(CN(c1ccc(Cl)c(Cl)c1)S(=O)(=O)c1ccccc1)N1CCc2ccccc2C1
The z-score of the first is higher: -0.113 for the first, -0.183 for the second.

Compared with `Cc1ccc(S(=O)(=O)N(C)c2cc(S(=O)(=O)N3CCC(C)CC3)c(C)cc2C)cc1`, `Cc1ccc(-n2[nH]c(C)c(C=Nc3ccc(S(=O)(=O)Nc4nccs4)cc3)c2=O)cc1` is lower in z-score: -0.338 for the first, -0.363 for the second.

First: CC1(C)Cc2c(c(N3CCOCC3)nc3sc4c(NCc5ccccc5)nnnc4c23)CS1
Second: CS(=O)(=O)NC1c2cccc3cccc(c23)C1N1CCOCC1 (stereo not drawn)
The z-score of the first is lower: -0.325 for the first, -0.0469 for the second.

Compared with `COc1cccc(Cn2c(NCc3ccccn3)nc3c2c(=O)n(C)c(=O)n3C)c1`, `COc1ccc(N2CCN(Cc3nc4c(c(=O)n(C)c(=O)n4C)n3C(C)C(C)=O)CC2)cc1` (stereo not drawn) is higher in z-score: -0.908 for the first, 0.133 for the second.

Compared with `O=C(Oc1ccccc1)c1cc2ccccc2o1`, `O=Cc1cn(-c2ccccc2)nc1-c1cc2ccccc2oc1=O` is lower in z-score: 2.68 for the first, -0.213 for the second.

First: CCn1c(CNc2nc3ccccc3n2C(C)C)nc2ccccc21
Second: Clc1ccc(Cn2c(-c3cccnc3Cl)nc3ccccc32)cc1
The z-score of the first is lower: -0.319 for the first, -0.275 for the second.

First: CCOC(=O)c1cc(-c2ccc(OC(F)F)cc2)nc2c1c(=O)[nH]c(=O)n2C
Second: CCOC(=O)c1sc2nc(C3CC3)cc(-c3ccc(OC)cc3)c2c1N
The z-score of the first is lower: -0.204 for the first, 0.139 for the second.

Compared with `C/C(=N/NC(=O)Cc1cccn1C)c1ccccc1`, `C/C(CC(=O)Nc1cccc(Cl)c1)=N\NC(=O)Cc1ccc(Cl)cc1` is higher in z-score: -0.136 for the first, -0.0249 for the second.

First: CCOC(=O)c1ccc(Nc2ncnc3ccc(C)cc23)cc1
Second: CC(C)(C)c1ccc(C(=O)OC/C(O)=C(\C#N)c2nc3ccccc3s2)cc1
The z-score of the first is lower: -0.372 for the first, -0.169 for the second.

First: COCc1nnc(NC(=O)c2cc(C(=O)OC)cc([N+](=O)[O-])c2)s1
Second: Cc1cc([N+](=O)[O-])nn1CCCC(=O)Nc1sc2c(c1C(N)=O)CCC(C)C2 (stereo not drawn)
The z-score of the first is higher: -0.115 for the first, -0.94 for the second.

Going from `COc1ccc(Nc2nc(N)nc(CN3CCc4ccccc4C3)n2)cc1` to `Cc1ccc(/C=N\NC(=O)C2COc3cc4ccccc4cc3O2)o1` (stereo not drawn), the z-score rises from -0.308 to 0.956.

Going from `Cc1cc(C(=O)NNC(=S)NCC(C)C)no1` to `COC(=O)CN(c1ccc(OC)cc1)S(=O)(=O)c1c(C)noc1C`, the z-score rises from -0.0668 to -0.0349.

First: CCCCCOC(=O)C1[C@H]2C(=O)N(CCCOC)C[C@]23C=C[C@H]1O3 (stereo partly drawn)
Second: CCCCCCCC(=O)N/N=C/c1ccco1
The z-score of the first is higher: 0.0933 for the first, 0.0471 for the second.

Going from `COC(=O)CCN(C(=O)C12CC3CC(CC(C3)C1)C2)c1ccccn1` to `N/C(=N\OC(=O)CC1CCCCC1)c1cccnc1`, the z-score falls from 0.0508 to -0.219.

Compared with `CC1=CCC2C(=O)N(c3nc(C)cc(C)n3)C(=O)C2C1` (stereo not drawn), `Cc1cc(N2C(=O)CC(Cc3ccc(Cl)cc3)C2=O)no1` (stereo not drawn) is higher in z-score: -0.376 for the first, 1.17 for the second.

First: COc1ccc(OC)c(N2C(=O)CC(Cc3ccc(C)cc3)C2=O)c1 (stereo not drawn)
Second: Cc1ccc(-n2c3nc(=O)[nH]c(=O)c-3cc3c(C)nn(-c4ccccc4)c32)c(C)c1
The z-score of the first is lower: -0.505 for the first, -0.277 for the second.

Going from `O=S(=O)(c1ccccc1)N(CC(O)CN1CCCCC1)c1ccccc1` (stereo not drawn) to `O=C(CN1CCCCCC1)Nc1ccccc1F`, the z-score falls from 0.146 to -0.0393.

Compared with `N#CCCn1cc(/C=N/O)c(-c2ccccc2)n1`, `Cc1onc(-c2ccccc2)c1C(=O)N1CC(C)OC(C)C1` (stereo not drawn) is higher in z-score: 0.0606 for the first, 0.301 for the second.

Compared with `CC(C)C(NC(=O)COc1ccccc1)C(=O)O` (stereo not drawn), `O=C1C=CN(C(=O)Oc2ccccc2)CC1` is lower in z-score: 0.0908 for the first, 0.0477 for the second.

First: Oc1ccc(-c2nc(=S)[nH][nH]2)cc1
Second: CC(C)(CO)NCc1cc(Br)ccc1OCc1ccccc1
The z-score of the first is higher: 0.905 for the first, 0.457 for the second.

Compared with `Cc1n[nH]c(=S)n(/N=C/c2ccccn2)c1=O`, `Cc1cc2nnc(SC(C)C#N)n2c2ccccc12` (stereo not drawn) is lower in z-score: 0.394 for the first, -0.327 for the second.

Going from `CCOC(=O)C1=C(N)OC2=C(C(=O)CC(C)(C)C2)C1c1ccoc1` (stereo not drawn) to `CC1(C)CC(=O)C2=C(C1)N(Cc1ccc(F)cc1)C(=O)C2(NC(=O)c1cccnc1)C(F)(F)F` (stereo not drawn), the z-score rises from -0.174 to -0.113.

Compared with `CCCOc1ccc(C(=O)NCCO)cc1`, `CCN(CC)CCCn1c(=S)[nH]c2cc(C(=O)OC)ccc2c1=O` is higher in z-score: -0.137 for the first, 0.199 for the second.

Compared with `CSc1ccccc1-c1nnc(-c2ccc(Cl)cc2Cl)o1`, `CC1(C)CN(c2ccccc2)N(Cc2ccc(F)cc2)C1=O` is higher in z-score: -0.19 for the first, -0.0869 for the second.

Going from `Cc1csc(NC(=O)C2COc3ccccc3O2)n1` (stereo not drawn) to `NCCN=C1NS(=O)(=O)c2ccccc21`, the z-score falls from 1.13 to -0.228.

Going from `CC(C)(C)C(=O)N1CCN(c2ccc([N+](=O)[O-])cc2Cl)CC1` to `CC(C)OC(=O)c1cc(C(=O)c2cc(F)ccc2O)coc1=N`, the z-score falls from -0.145 to -0.176.

Compound `Cc1ccc2nc(SCCC#N)nc(C)c2c1` has a z-score of -0.366.

`Cc1ccccc1C(=O)NNC(=O)C(=O)Nc1cccc(Cl)c1C` was tested, and the z-score was active: 6.02.
